From PubChem BioAssay AID624417 (National Center for Advancing Translational Sciences (NCATS), 2012)
In all, about 410,000 compounds went through this assay and about 6,400 (1.6%) were called active. Inconclusive means that the source gave no clear call. Such entries were picked first, then a sample of the others. The call rests on the fitted dose curve; in most records, active means well fitted inhibition curve with a large enough effect; inconclusive means small, poorly fitted or top-dose-only effect; inactive means no such curve, though single readings can be large or run the other way. No potency is given beside an inconclusive call; the fits are too rough.

molecular target: Glucagon-like peptide 1 receptor (Homo sapiens) (UniProt P43220); experiment: qHTS of GLP-1 Receptor Inverse Agonists (Inhibition Mode); details: HEK293 GLP-1R CRE-luciferase, luminescence, 24 h, GLP-1R form is constitutively active; series mostly up to 38.3 µM; further: nearly all actives have a fitted effect of over 55% in size
Outline: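 Stable HEK293 clone (constitutively active GLP-1R + cAMP-response luciferase); 200 cells/uL plated, 12 h pre-culture, compound 24 hr, 37 deg C/5% CO2; detection reagent 12 min RT; luminescence.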
Potency means the concentration at half of the fitted maximal effect; tags describe the fitted curve by direction and shape.

UniProt P43220, sequence (P43220 whole entry, looked up): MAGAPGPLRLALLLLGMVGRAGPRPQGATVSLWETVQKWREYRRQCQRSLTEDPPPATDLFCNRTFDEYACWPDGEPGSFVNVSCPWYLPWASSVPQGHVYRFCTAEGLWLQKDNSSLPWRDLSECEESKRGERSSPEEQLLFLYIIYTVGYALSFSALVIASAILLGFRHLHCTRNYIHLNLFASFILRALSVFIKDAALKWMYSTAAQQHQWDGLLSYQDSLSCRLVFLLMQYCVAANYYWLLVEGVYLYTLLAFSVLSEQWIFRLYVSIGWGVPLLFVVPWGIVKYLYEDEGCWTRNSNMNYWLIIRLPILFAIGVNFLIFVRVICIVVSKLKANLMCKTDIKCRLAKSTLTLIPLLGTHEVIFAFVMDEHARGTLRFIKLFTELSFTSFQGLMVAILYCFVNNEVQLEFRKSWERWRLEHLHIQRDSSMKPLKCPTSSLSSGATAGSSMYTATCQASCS

| Structure (SMILES) | Potency |
| --- | --- |
| CCCn1c(SCC(=O)Nc2cccc(S(=O)(=O)N(C)C)c2)nc2ccccc2c1=O | inconclusive [inhibitor, single point] |
| CCCCn1nnnc1C(c1cc2ccccc2o1)N1CCCC1 (centres undefined) | inactive |
| CC(C)(C)C(c1nc2ccccc2[nH]1)n1c(-c2ccsc2)nc2ccccc21 (centres undefined) | active: 10 µM |
| Cc1cc(C(=O)CN2C(=O)C3CC=CCC3C2=O)c(C)n1-c1ccccc1 (centres undefined) | inconclusive [inhibitor, single point] |
| Cc1ccc(OCc2cc(C(=O)NC3CCCCC3)no2)cn1 | inactive |
| O=C(CSc1nnc(-c2ccco2)n1Cc1ccccc1)NCc1ccccc1 | inconclusive [inhibitor, partial curve] |
| CC(C)n1c(-c2ccco2)csc1=Nc1cccnc1 | inconclusive [inhibitor, partial curve, poor fit] |
| Cc1cccc(N2CCN(C(=S)Nc3ccc4nc5n(c(=O)c4c3)CCCCC5)CC2)c1C | inconclusive [inhibitor, full curve, poor fit] |
| CCOC(=O)c1cccc(NC(=O)CN2CCN(c3ccc(OC)cc3)CC2)c1 | inconclusive [inhibitor, single point] |
| COc1cc(OC)c(-c2nc3ccccc3s2)cc1OC | inconclusive [inhibitor, single point] |
| COc1ccc(C2CC(=O)N(CC(=O)Nc3ccc(C(C)=O)cc3)c3ccccc3S2)cc1OC (centres undefined) | inconclusive [inhibitor, single point] |
| Cc1ccc2ccc[n+](Cc3ccccc3)c2c1 | inactive |
| O=C(NCC(c1ccc2c(c1)OCO2)N1CCN(c2ccccc2F)CC1)c1ccccc1F (centres undefined) | inconclusive [inhibitor, single point] |
| Cc1ccc2c(CN3CCN(Cc4ccccc4)CC3)cc(=O)oc2c1 | inconclusive [inhibitor, partial curve, poor fit] |
| COc1ccc(N(CC(=O)Nc2cc(OC)ccc2OC)S(=O)(=O)c2c(C)noc2C)cc1 | inconclusive [inhibitor, single point] |
| O=C(c1ccc(CS(=O)c2ccccc2Cl)o1)N1CCN(c2ccccn2)CC1 (centres undefined) | inconclusive [inhibitor, full curve, poor fit] |
| COc1cc(C(=O)NCC(c2ccco2)N2CCc3ccccc32)cc(OC)c1OC (centres undefined) | inconclusive [inhibitor, single point] |
| Cc1ccc(C(=O)N/C(=C/c2ccc(-c3ccc([N+](=O)[O-])cc3)o2)C(=O)NCCCN(C)C)cc1 | inconclusive [inhibitor, partial curve, poor fit] |
| COc1cc(C#Cc2c(-c3ccccc3)n(C)c3ccccc23)cc(OC)c1 | inconclusive [inhibitor, partial curve, poor fit] |
| O=C(Nc1ccc(Cl)cc1C(F)(F)F)C(Sc1nnc(-c2cccs2)o1)c1ccccc1 (centres undefined) | inconclusive [inhibitor, partial curve, poor fit] |
| O=S(=O)(Nc1nc2ccccc2nc1Cl)c1ccc(Br)cc1 | inconclusive [inhibitor, single point] |
| CC#C[C@]1(O)CC[C@H]2[C@@H]3CCC4=CC(=O)CCC4=C3[C@@H](c3ccc(N(C)C)cc3)C[C@@]21C | inconclusive [inhibitor, partial curve, poor fit] |

| Structure (SMILES) | Potency |
| --- | --- |
| COC(=O)c1ccc(NC(=O)Nc2ccc(F)cc2F)cc1 | inactive |
| O=S(=O)(c1ccc(Oc2ccc(Br)cc2)cc1)N1CCOCC1 | inconclusive [inhibitor, partial curve] |
| Cc1csc(-c2nc3ccccc3n2C(C(=O)NC(C)(C)C)c2cc3ccccc3o2)c1 (centres undefined) | inconclusive [inhibitor, partial curve, poor fit] |
| Cc1c(C(=O)NCc2ccc(OC(C)C)cc2)sc2ncnc(N(C)C3CCCCC3)c12 | inactive |
| CC1=Nc2cc(C(=O)N3CCCCC3)ccc2Sc2ccc(C)cc21 | inconclusive [inhibitor, single point] |
| O=C(NCCc1ccccc1)c1c[nH]c2c(F)cccc2c1=O | inactive |
| O=C(Nc1ccccc1)c1ccccc1NC(=O)C1CCCCC1 | inconclusive [inhibitor, partial curve, poor fit] |
| COCCCNC(=S)Nc1ccc(N2CCCCC2)cc1 | inconclusive [inhibitor, partial curve, poor fit] |
| Cc1cc(=O)n2[nH]c(NC(=O)c3cccc(Cl)c3)nc2n1 | inactive |
| O=C(CSCc1ccccc1)NNc1c(F)c(F)cc(F)c1F | inconclusive [inhibitor, single point] |
| Cc1cc(C)n(CCc2nc(-c3ccc(F)cc3)cs2)n1 | inconclusive [inhibitor, single point] |
| C=C1C(=O)O[C@@]23[C@H]1CC[C@@H](C)[C@@H]2CC[C@@]1(C)O[C@@H]31 | inconclusive [inhibitor, single point] |
| Cc1ccccc1NC(=S)NCc1ccc2c(c1)cc(C)n2C | inconclusive [inhibitor, single point] |
| Fc1ccc(CSc2ncnc3c2ncn3C2CCCCO2)cc1 (centres undefined) | inconclusive [inhibitor, single point] |
| C/C=C(\C)C(=O)Nc1cccc(C2=NOC3(C2)C[C@@H](C(N)=O)N(C(=O)c2ccccc2C(=O)c2ccccc2)C3)c1 (some centres undefined) | inactive |
| COC(=O)C1=C(C(=O)OC)[C@]2([C@@H]3CCCCN[C@@H](Cc4ccccc4)C(=O)N3Cc3ccccc3)C=C[C@H]1O2 | inconclusive [inhibitor, single point] |
| CN(C)c1ccc(NC(=O)CN2CCN(S(=O)(=O)c3cc(Cl)ccc3Cl)CC2)cc1 | inconclusive [inhibitor, full curve, poor fit] |
| COc1ccccc1N(C)S(=O)(=O)c1ccc(C(=O)N(C)Cc2ccc(Cl)s2)cc1 | inconclusive [inhibitor, partial curve, poor fit] |
| CCn1ncc(CNC(=O)CCCSc2nc(-c3ccco3)cc(C(F)(F)F)n2)c1C | inconclusive [inhibitor, partial curve, poor fit] |
| Cn1nnnc1SCCNC(=O)C1CCC(=O)N(CCc2cccc(F)c2)C1 (centres undefined) | inactive |
| CCCCCNc1nc2c(-c3ccccc3)nnn2c2ccccc12 | inactive |
| COc1cc(/C=C2/C(=N)N3C=CSC3=NC2=O)ccc1OCCCOc1ccccc1C | inactive |

| Structure (SMILES) | Potency |
| --- | --- |
| CN(Cc1cn(Cc2cccc(Cl)c2)nn1)C1CN(Cc2cn(Cc3cccc(Cl)c3)nn2)S(=O)(=O)C1 (centres undefined) | inconclusive [inhibitor, partial curve] |
| CCOC(=O)Cn1cnc2scc(-c3ccc(C)cc3)c2c1=O | inconclusive [inhibitor, single point] |
| O=C(Nc1ccccc1)Nc1ccc(S(=O)(=O)N2CCCCC2)cc1 | inconclusive [inhibitor, partial curve, poor fit] |
| O=C(/C=C/Nc1ccccc1F)c1cccs1 | inconclusive [inhibitor, single point] |
| CCc1ccc(OC(=O)c2sc3ncn(Cc4cccc(F)c4)c(=O)c3c2C)cc1 | inactive |
| O=C(CC(=O)Nc1ccccc1F)Nc1ccc2nc3n(c(=O)c2c1)CCCCC3 | inactive |
| Cc1cccc(N2CCN(C(=O)c3ccc4c(c3)N(Cc3cccc(Cl)c3)C(=O)c3ccccc3S4=O)CC2)c1C (centres undefined) | inconclusive [inhibitor, full curve, poor fit] |
| CC1Cc2ccccc2N1Cc1nc2scc(-c3cccs3)c2c(=O)[nH]1 (centres undefined) | inconclusive [inhibitor, partial curve] |
| CCc1cccc2c(C(=O)CN3C(=O)C(=O)N(C4CCCC4)C3=O)c[nH]c12 | inconclusive [inhibitor, partial curve, poor fit] |
| COc1ccccc1OCCOc1ccc(C(=O)c2ccccc2)cc1 | active: 8.91 µM |
| Cc1cc(C)cc(NC(=O)CN2CCN(C(=O)C3CCCO3)CC2)c1 (centres undefined) | inconclusive [inhibitor, single point] |
| O=C(Nc1cccc(F)c1)c1ccc(-c2ccccc2Cl)o1 | inconclusive [inhibitor, single point] |
| CN(C)/C=C/C(=O)c1ccn(S(=O)(=O)c2ccccc2)c1 | inactive |
| CCCOc1ccc(Cn2c(=O)sc3ccccc32)cc1 | inconclusive [inhibitor, single point] |
| O=C(CCc1nc2cccnc2n1Cc1ccccc1)NCCc1ccc(Cl)cc1 | inconclusive [inhibitor, partial curve, poor fit] |
| O=C(CSCc1ccc(F)cc1)N1CCc2c([nH]c3ccccc23)C1c1ccccc1 (centres undefined) | active: 7.94 µM |
| CCCCSC(=S)NC1CCS(=O)(=O)C1 (centres undefined) | inconclusive [inhibitor, partial curve, poor fit] |
| CC1CCC(C(C)C)C(OC(=O)COC(=O)c2cc(O)ccc2N)C1 (centres undefined) | inconclusive [inhibitor, partial curve, poor fit] |
| CCOC(=O)C1=CN(Cc2ccco2)S(=O)(=O)N(C)C1c1ccc(C(F)(F)F)cc1 (centres undefined) | inconclusive [inhibitor, single point] |
| COC(=O)c1cc(COc2ccc3ccc(=O)oc3c2)c(C)o1 | inactive |
